Measurements taken from the supplement of paper PMC8728848.
This is one part of the list.

How the values were obtained:
Test in all cases: glycan array binding signal (z-score within array); higher = stronger binding
Conditions in all cases: glycan notation: IUPAC condensed, linker removed
[1] = target: Man(a1-2)Man(a1-3)[Man(a1-2)Man(a1-6)]Man
Method in brief: (§1)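 The binding signal is a Z-score computed within each array. Data were drawn from 3228 arrays in the Consortium for Functional Glycomics database, restricted to those with a known protein sequence. Scores were averaged over arrays of the same protein sequence at different concentrations or buffers, and over linkers, and negative values can be taken as non-binding.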

[2] = target: Man(a1-2)Man(a1-3)[Man(a1-2)Man(a1-6)]Man(a1-6)[Man(a1-2)Man(a1-2)Man(a1-3)]Man
Method in brief: as §1

[3] = target: Man(a1-2)Man(a1-3)[Man(a1-2)Man(a1-6)]Man(a1-6)[Man(a1-2)Man(a1-2)Man(a1-3)]Man(b1-4)GlcNAc(b1-4)GlcNAc
Method in brief: as §1

[4] = target: Man(a1-2)Man(a1-3)[Man(a1-6)]Man(a1-6)[Man(a1-2)Man(a1-3)]Man(b1-4)GlcNAc(b1-4)GlcNAc
Method in brief: as §1

[5] = target: Man(a1-2)Man(a1-6)[Man(a1-3)]Man(a1-6)[Man(a1-2)Man(a1-2)Man(a1-3)]Man
Method in brief: as §1

[6] = target: Man(a1-2)Man(a1-6)[Man(a1-3)]Man(a1-6)[Man(a1-2)Man(a1-2)Man(a1-3)]Man(b1-4)GlcNAc(b1-4)GlcNAc
Method in brief: as §1

[7] = target: Man(a1-3)[Man(a1-6)]Man
Method in brief: as §1

[8] = target: Man(a1-3)[Man(a1-6)]Man(a1-6)[Man(a1-2)Man(a1-3)]Man(b1-4)GlcNAc(b1-4)GlcNAc
Method in brief: as §1

[9] = target: Man(a1-3)[Man(a1-6)]Man(a1-6)[Man(a1-3)]Man
Method in brief: as §1

[10] = target: Man(a1-3)[Man(a1-6)]Man(a1-6)[Man(a1-3)]Man(b1-4)GlcNAc(b1-4)GlcNAc
Method in brief: as §1

[11] = target: Man(a1-3)[Man(a1-6)]Man(b1-4)GlcNAc(b1-4)GlcNAc
Method in brief: as §1

[12] = target: Man(a1-3)[Man(a1-6)]Man(b1-4)GlcNAc(b1-4)[Fuc(a1-6)]GlcNAc
Method in brief: as §1

[13] = target: Man(a1-6)Man
Method in brief: as §1

[14] = target: Man(b1-4)GlcNAc
Method in brief: as §1

[15] = target: MurNAc(b1-4)GlcNAc
Method in brief: as §1

[16] = target: Neu5Ac(a2-3)Gal
Method in brief: as §1

[17] = target: Neu5Ac(a2-3)Gal(b1-3)GalNAc
Method in brief: as §1

[18] = target: Neu5Ac(a2-3)Gal(b1-3)GalNAc(b1-3)Gal(a1-4)Gal(b1-4)Glc
Method in brief: as §1

[19] = target: Neu5Ac(a2-3)Gal(b1-3)GalNAc(b1-4)Gal(b1-4)Glc
Method in brief: as §1

[20] = target: Neu5Ac(a2-3)Gal(b1-3)GalNAc(b1-4)[Neu5Ac(a2-3)]Gal(b1-4)Glc
Method in brief: as §1

[21] = target: Neu5Ac(a2-3)Gal(b1-3)GalNAc(b1-4)[Neu5Ac(a2-8)Neu5Ac(a2-3)]Gal(b1-4)Glc
Method in brief: as §1

[22] = target: Neu5Ac(a2-3)Gal(b1-3)GalNAc6S
Method in brief: as §1

[23] = target: Neu5Ac(a2-3)Gal(b1-3)GlcNAc
Method in brief: as §1

[24] = target: Neu5Ac(a2-3)Gal(b1-3)GlcNAc(b1-2)Man
Method in brief: as §1

[25] = target: Neu5Ac(a2-3)Gal(b1-3)GlcNAc(b1-2)Man(a1-3)[GlcNAc(b1-4)][Neu5Ac(a2-3)Gal(b1-3)GlcNAc(b1-2)Man(a1-6)]Man(b1-4)GlcNAc(b1-4)GlcNAc
Method in brief: as §1

[26] = target: Neu5Ac(a2-3)Gal(b1-3)GlcNAc(b1-2)Man(a1-3)[Neu5Ac(a2-3)Gal(b1-3)GlcNAc(b1-2)Man(a1-6)]Man(b1-4)GlcNAc(b1-4)GlcNAc
Method in brief: as §1

[27] = target: Neu5Ac(a2-3)Gal(b1-3)GlcNAc(b1-2)[Neu5Ac(a2-3)Gal(b1-3)GlcNAc(b1-4)]Man(a1-6)[Neu5Ac(a2-3)Gal(b1-3)GlcNAc(b1-2)Man(a1-3)]Man(b1-4)GlcNAc(b1-4)GlcNAc
Method in brief: as §1

[28] = target: Neu5Ac(a2-3)Gal(b1-3)GlcNAc(b1-3)Gal(b1-3)GlcNAc
Method in brief: as §1

[29] = target: Neu5Ac(a2-3)Gal(b1-3)GlcNAc(b1-3)Gal(b1-4)GlcNAc
Method in brief: as §1

[30] = target: Neu5Ac(a2-3)Gal(b1-3)GlcNAc(b1-3)GalNAc
Method in brief: as §1

[31] = target: Neu5Ac(a2-3)Gal(b1-3)GlcNAc(b1-6)GalNAc
Method in brief: as §1

[32] = target: Neu5Ac(a2-3)Gal(b1-3)GlcNAc6S
Method in brief: as §1

[33] = target: Neu5Ac(a2-3)Gal(b1-3)[Fuc(a1-4)]GlcNAc
Method in brief: as §1

[34] = target: Neu5Ac(a2-3)Gal(b1-3)[Fuc(a1-4)]GlcNAc(b1-3)Gal(b1-3)[Fuc(a1-4)]GlcNAc
Method in brief: as §1

[35] = target: Neu5Ac(a2-3)Gal(b1-3)[Fuc(a1-4)]GlcNAc(b1-3)Gal(b1-4)[Fuc(a1-3)]GlcNAc
Method in brief: as §1

[36] = target: Neu5Ac(a2-3)Gal(b1-3)[GlcNAc(b1-6)]GalNAc
Method in brief: as §1

[37] = target: Neu5Ac(a2-3)Gal(b1-3)[Neu5Ac(a2-6)]GalNAc
Method in brief: as §1

[38] = target: Neu5Ac(a2-3)Gal(b1-3)[Neu5Ac(a2-6)]GlcNAc(b1-3)[Fuc(a1-3)[Gal(b1-4)]GlcNAc(b1-6)]Gal(b1-4)Glc
Method in brief: as §1

[39] = target: Neu5Ac(a2-3)Gal(b1-3)]Neu5Ac(a2-3)Gal(b1-4)]GlcNAc
Method in brief: as §1

[40] = target: Neu5Ac(a2-3)Gal(b1-4)Glc
Method in brief: as §1

[41] = target: Neu5Ac(a2-3)Gal(b1-4)GlcNAc
Method in brief: as §1

[42] = target: Neu5Ac(a2-3)Gal(b1-4)GlcNAc(b1-2)Man
Method in brief: as §1

[43] = target: Neu5Ac(a2-3)Gal(b1-4)GlcNAc(b1-2)Man(a1-3)[GlcNAc(b1-4)][Neu5Ac(a2-3)Gal(b1-4)GlcNAc(b1-2)Man(a1-6)]Man(b1-4)GlcNAc(b1-4)GlcNAc
Method in brief: as §1

[44] = target: Neu5Ac(a2-3)Gal(b1-4)GlcNAc(b1-2)Man(a1-3)[Neu5Ac(a2-3)Gal(b1-4)GlcNAc(b1-2)Man(a1-6)]Man(b1-4)GlcNAc(b1-4)GlcNAc
Method in brief: as §1

[45] = target: Neu5Ac(a2-3)Gal(b1-4)GlcNAc(b1-2)Man(a1-3)[Neu5Ac(a2-3)Gal(b1-4)GlcNAc(b1-2)Man(a1-6)]Man(b1-4)GlcNAc(b1-4)[Fuc(a1-6)]GlcNAc
Method in brief: as §1

B1: BTL (Bryothamnion triquetrum) (protein)
chain: ADPICGSSGYSCTTPAILTPKSPGSFPSGYSKVIVTGVGGSYSVYIHRPDGFKVYKASEGGCASFGSYSGGGNSEVGKYGSGGTVVAVACK
- glycan array binding signal (z-score) [1]: -0.275
- glycan array binding signal (z-score) [2]: -0.244
- glycan array binding signal (z-score) [3]: -0.245
- glycan array binding signal (z-score) [4]: -0.309
- glycan array binding signal (z-score) [5]: -0.277
- glycan array binding signal (z-score) [6]: -0.284
- glycan array binding signal (z-score) [7]: -0.23
- glycan array binding signal (z-score) [8]: -0.158
- glycan array binding signal (z-score) [9]: -0.276
- glycan array binding signal (z-score) [10]: -0.155
- glycan array binding signal (z-score) [11]: -0.033
- glycan array binding signal (z-score) [12]: 4.2
- glycan array binding signal (z-score) [13]: -0.213
- glycan array binding signal (z-score) [14]: -0.22
- glycan array binding signal (z-score) [15]: -0.26
- glycan array binding signal (z-score) [16]: -0.268
- glycan array binding signal (z-score) [17]: -0.232
- glycan array binding signal (z-score) [18]: -0.201
- glycan array binding signal (z-score) [19]: -0.251
- glycan array binding signal (z-score) [20]: -0.221
- glycan array binding signal (z-score) [21]: -0.229
- glycan array binding signal (z-score) [22]: -0.194
- glycan array binding signal (z-score) [23]: -0.235
- glycan array binding signal (z-score) [24]: -0.242
- glycan array binding signal (z-score) [25]: -0.191
- glycan array binding signal (z-score) [26]: -0.243
- glycan array binding signal (z-score) [27]: -0.099
- glycan array binding signal (z-score) [28]: -0.209
- glycan array binding signal (z-score) [29]: -0.194
- glycan array binding signal (z-score) [30]: -0.259
- glycan array binding signal (z-score) [31]: -0.212
- glycan array binding signal (z-score) [32]: -0.24
- glycan array binding signal (z-score) [33]: -0.252
- glycan array binding signal (z-score) [34]: -0.235
- glycan array binding signal (z-score) [35]: -0.21
- glycan array binding signal (z-score) [36]: -0.206
- glycan array binding signal (z-score) [37]: -0.132
- glycan array binding signal (z-score) [38]: -0.2
- glycan array binding signal (z-score) [39]: -0.243
- glycan array binding signal (z-score) [40]: -0.124
- glycan array binding signal (z-score) [41]: -0.268
- glycan array binding signal (z-score) [42]: -0.143
- glycan array binding signal (z-score) [43]: -0.237
- glycan array binding signal (z-score) [44]: -0.251
- glycan array binding signal (z-score) [45]: 5.15
